# Laboratory results published in PubChem BioAssay AID504832 (National Center for Advancing Translational Sciences (NCATS), 2011).
# “And” between values parts separate entries of the source, which are not always exact repeats. Equal entries are not always repeated. Out of some 310,000 compounds screened, about 18,000 (5.8%) were called active. The inconclusive results got no clear call from the source; some entries with a clear call stand among them for comparison. Calls follow the shape of the dose curve; as a rule, active = well fitted inhibition curve with a large enough effect; inconclusive = small, poorly fitted or top-dose-only effect, or another doubt; inactive = no such curve, though single readings can be large or run the other way. Potencies of inconclusive entries are left out as doubtful fits.
# Test: Primary qHTS for delayed death inhibitors of the malarial parasite plastid, 48 hour incubation
# Conditions: P. falciparum luciferase growth in erythrocytes; series mostly up to 28.7 µM; activity change, negative = inhibition: at the top concentration
# Outline: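 Firefly luciferase activity from engineered P. falciparum reports growth; inhibitors lower the luminescent signal. Cultures contained 2% hematocrit erythrocytes at 0.1% final parasitemia.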
# % is scaled to controls: 0 for no effect and ±100 for the full control effect; potency is read from the fitted curve at half-maximal effect; tags tell the direction and shape of the fitted curve.
SMILES,Potency,"activity change, negative = inhibition"
CC(C)(C)N(NC(=O)Nc1ccc(Cl)c(Cl)c1)C(=O)c1ccccc1,active: 11.7 µM,–
S=C(Nc1ccc(Cl)cc1)N1CCN(C2CCCCC2)CC1,"inconclusive [inhibitor, partial curve, poor fit]",–
N#CC1(NC(=O)COC(=O)c2cccc(-n3cnnn3)c2)CCCCC1,–,inactive: 7.46%
CC(C)CN(C(=O)COC(=O)CCC(=O)c1ccc(Cl)cc1)c1c(N)n(Cc2ccccc2)c(=O)[nH]c1=O,"inconclusive [inhibitor, single point]",–
O=C(CSc1nnc(Cn2nnc(-c3ccccc3)n2)n1-c1ccccc1)Nc1ccccc1,"inconclusive [inhibitor, single point]",–
CCOC(=O)c1cnc(SCC(=O)OCC(=O)N(CC)C2CCS(=O)(=O)C2)nc1N (configuration not stated),"inconclusive [inhibitor, single point]",–
Cc1nnc(SCC(=O)Nc2cccc(S(=O)(=O)NC3=NCCCCC3)c2)n1Cc1ccccc1,–,inactive: -17.5%
CCOC(=O)c1cc(NC(=O)C2C3CCC(O3)C2C(=O)O)cc(C(=O)OCC)c1 (configuration not stated),"inconclusive [inhibitor, full curve, poor fit]",–
Cc1cccc2[nH]c3c(N4CCC5(CC4)OCCO5)ncnc3c12,"inconclusive [inhibitor, single point]",–
Cc1ccc(NC(=O)CSc2nnc(-c3ccc(S(=O)(=O)N4CCCC4)cc3)o2)cc1C,"inconclusive [inhibitor, partial curve]",–
COc1ccc(C2CC(c3ccccc3)=NN2C(=O)CSc2ncn[nH]2)cc1 (configuration not stated),"inconclusive [inhibitor, single point]",–
O=C(N/N=C/c1ccccc1O)c1ccncc1,active: 8.49 µM and active: 9.28 µM,–
COc1ccc(-n2nc(C(=O)N3CCN(Cc4ccc5c(c4)OCO5)CC3)c3ccccc3c2=O)cc1,"inconclusive [inhibitor, single point]",–
COc1ccc(Cl)cc1NC(=S)N(CCCN1CCOCC1)Cc1cn(C)c2ccccc12,"inconclusive [inhibitor, single point]",–
Cc1ccc(-c2nc(C(Cl)Cl)c3ccccc3n2)cc1,"inconclusive [inhibitor, partial curve, poor fit]",–
Cc1c(Oc2cc(NN3CCCCC3)c([N+](=O)[O-])cc2[N+](=O)[O-])cccc1[N+](=O)[O-],"inconclusive [inhibitor, full curve]",–
COc1ccc(S(=O)(=O)N2CC(=O)Nc3ccccc32)cc1C,–,inactive: 4.63%
